Measured values published in the RNAGym collection of RNA variant scans (doi:10.1073/pnas.2313332121).
Variants at the background level are over-represented here.

B1: TPR 5TU (parent)
chain: GGAUCUUCUCGAUCUAACAAAAAAGACAAAUCUGCCACAAAGCUUGAGAGCAUCUUCGGAUGCAGAGGCGGCAGCCUUCGGUGGCGCGAUAGCGCCAACGUUCUCAACUAUGACACGCAAAACGCGUGCUCCGUUGAAUGGAGUUUAUCAUG

Variants of: B1
Experiment: polymerase ribozyme fitness, log enrichment relative to wild type (log ratio); higher = more active; in vitro selection for triplet polymerase activity
Method in brief: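 Mutant libraries of both subunits of a heterodimeric triplet polymerase ribozyme were PCR-built, transcribed, and selected once in triplicate, with frozen incubation at −7 °C and capture of gel-excised extended constructs on streptavidin beads before RT-PCR. Illumina sequencing of input and output libraries was filtered to genotypes with ≥10 input reads and ≥1 read per output. Fitness is the logarithm of genotype enrichment over wild-type enrichment, using inverse-variance-weighted replicate averages. The logarithm is base 2.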
For G11C C32U C69A A121G, the “polymerase ribozyme fitness (log ratio)” value was -4.12. In the case of G11C C32U U45G U55A U90C U102A, the “polymerase ribozyme fitness (log ratio)” value is reported as ≤ -4.2. In the case of G11C C35U, the “polymerase ribozyme fitness (log ratio)” value is reported as -2.11. In the case of G11C C36U C51U C79U A89C, the “polymerase ribozyme fitness (log ratio)” value is reported as ≤ -4.2. With G11C C36U G141C U145A the “polymerase ribozyme fitness (log ratio)” value was ≤ -4.2. In the case of G11C C38A G59A C125G, the “polymerase ribozyme fitness (log ratio)” value is reported as -2.58. With G11C C38U C79A C95U the “polymerase ribozyme fitness (log ratio)” value was ≤ -4.2. In the case of G11C C38U C85G U135C, the “polymerase ribozyme fitness (log ratio)” value is reported as ≤ -4.2. For G11C C43U G92A A138G, the “polymerase ribozyme fitness (log ratio)” value was ≤ -4.2. With G11C C51U C79A G126U the “polymerase ribozyme fitness (log ratio)” value was ≤ -4.2. For G11C C51U C95A U127A, the “polymerase ribozyme fitness (log ratio)” value was ≤ -4.2. With G11C C54U C85U A115G the “polymerase ribozyme fitness (log ratio)” value was -3.49. For G11C C63U C85U G86U C114U, the “polymerase ribozyme fitness (log ratio)” value was ≤ -4.2. In the case of G11C C85A G133A, the “polymerase ribozyme fitness (log ratio)” value is reported as ≤ -4.2. With G11C C85U A98U C103U U148G the “polymerase ribozyme fitness (log ratio)” value was ≤ -4.2. In the case of G11C C87U, the “polymerase ribozyme fitness (log ratio)” value is reported as -2.7. In the case of G11C C93A C95U A115U G133C, the “polymerase ribozyme fitness (log ratio)” value is reported as ≤ -4.2. In the case of G11C C105U C118G, the “polymerase ribozyme fitness (log ratio)” value is reported as -1.92. With G11C C108G C114G the “polymerase ribozyme fitness (log ratio)” value was ≤ -4.2. With G11C C125G A142C the “polymerase ribozyme fitness (log ratio)” value was ≤ -4.2. With G11C G46A G58A G83A the “polymerase ribozyme fitness (log ratio)” value was -3.26. For G11C G46C G59C G92U, the “polymerase ribozyme fitness (log ratio)” value was -3.55. In the case of G11C G48A A52G C96U A113G C118U G141U A142C U151G, the “polymerase ribozyme fitness (log ratio)” value is reported as ≤ -4.2. For G11C G48A C51U G68C G86U A97U C99G G133A, the “polymerase ribozyme fitness (log ratio)” value was ≤ -4.2. For G11C G50A U56A G83U C93A U127C U135C, the “polymerase ribozyme fitness (log ratio)” value was ≤ -4.2. For G11C G50U C96G A121G G140C, the “polymerase ribozyme fitness (log ratio)” value was ≤ -4.2. For G11C G59A A73G U82G, the “polymerase ribozyme fitness (log ratio)” value was -2.2. With G11C G68C C76A G80C C93U the “polymerase ribozyme fitness (log ratio)” value was ≤ -4.2. In the case of G11C G74A C76U C93G A113G U145A, the “polymerase ribozyme fitness (log ratio)” value is reported as ≤ -4.2. In the case of G11C G92C G140A C149U, the “polymerase ribozyme fitness (log ratio)” value is reported as ≤ -4.2. With G11C U13A A64U G74C C85U C96G U102C the “polymerase ribozyme fitness (log ratio)” value was ≤ -4.2. For G11C U13G A21U A30C G58C C85G, the “polymerase ribozyme fitness (log ratio)” value was ≤ -4.2. With G11C U15C C79A C96A the “polymerase ribozyme fitness (log ratio)” value was ≤ -4.2. For G11C U15G A40C C87A U148G, the “polymerase ribozyme fitness (log ratio)” value was ≤ -4.2. In the case of G11C U31C U33G A40U U77G, the “polymerase ribozyme fitness (log ratio)” value is reported as ≤ -4.2. In the case of G11C U53A C72G C79A U82A U90G A106C, the “polymerase ribozyme fitness (log ratio)” value is reported as ≤ -4.2. With G11C U61A G67A G94C U145G A147U the “polymerase ribozyme fitness (log ratio)” value was ≤ -4.2. For G11U A12G G42C C87A C99A A121G C125A, the “polymerase ribozyme fitness (log ratio)” value was ≤ -4.2. With G11U A16C A24G G58C C87A C99U the “polymerase ribozyme fitness (log ratio)” value was ≤ -4.2. In the case of G11U A16U C36A G58U G92U C93U, the “polymerase ribozyme fitness (log ratio)” value is reported as ≤ -4.2. For G11U A17C A21U G84U A98C G143C, the “polymerase ribozyme fitness (log ratio)” value was ≤ -4.2. For G11U A17G A39U A40C G68A G92A A106G A115U G143U, the “polymerase ribozyme fitness (log ratio)” value was ≤ -4.2. For G11U A19C G68A G74A C87A C149G, the “polymerase ribozyme fitness (log ratio)” value was ≤ -4.2. In the case of G11U A20C A41C C63U G92A C116G, the “polymerase ribozyme fitness (log ratio)” value is reported as ≤ -4.2. In the case of G11U A20G A24U G50A C125G G136U, the “polymerase ribozyme fitness (log ratio)” value is reported as ≤ -4.2. For G11U A21C A24C A66C G68A C96U, the “polymerase ribozyme fitness (log ratio)” value was ≤ -4.2. In the case of G11U A21C A37U A66G C95A C114G C116G, the “polymerase ribozyme fitness (log ratio)” value is reported as ≤ -4.2. With G11U A21C A52U C69U C75G C93G A106U G133C the “polymerase ribozyme fitness (log ratio)” value was ≤ -4.2. With G11U A21C U33G C36A C85G the “polymerase ribozyme fitness (log ratio)” value was ≤ -4.2. For G11U A22C C87U, the “polymerase ribozyme fitness (log ratio)” value was -2.61. For G11U A22C U45G A47C A49G C51U C54U G83A C85G, the “polymerase ribozyme fitness (log ratio)” value was ≤ -4.2. With G11U A22G A37C G58C U78A G94U U134G the “polymerase ribozyme fitness (log ratio)” value was ≤ -4.2. In the case of G11U A23C C27G G48A C57U C75U C79A A107G U135C G141U, the “polymerase ribozyme fitness (log ratio)” value is reported as ≤ -4.2. With G11U A28C C54G C87U C118G the “polymerase ribozyme fitness (log ratio)” value was ≤ -4.2. With G11U A28U A60U G83A C103G the “polymerase ribozyme fitness (log ratio)” value was ≤ -4.2. For G11U A28U A91U G100U U144C, the “polymerase ribozyme fitness (log ratio)” value was ≤ -4.2. In the case of G11U A28U C43U C87A C99G G126A, the “polymerase ribozyme fitness (log ratio)” value is reported as -4.16. With G11U A28U C54G G68A C79A G80C G88A U101A A142C the “polymerase ribozyme fitness (log ratio)” value was ≤ -4.2. With G11U A29G U53G G65C A66G the “polymerase ribozyme fitness (log ratio)” value was ≤ -4.2. For G11U A29U A37U C95U C103G, the “polymerase ribozyme fitness (log ratio)” value was ≤ -4.2. With G11U A30U G65U G70C C85G A91U C93A A150U the “polymerase ribozyme fitness (log ratio)” value was ≤ -4.2. In the case of G11U A37G G71A C87G G92C C131A, the “polymerase ribozyme fitness (log ratio)” value is reported as ≤ -4.2. In the case of G11U A37U C87A, the “polymerase ribozyme fitness (log ratio)” value is reported as -4.14. In the case of G11U A39U A40U A60U C79U U101A, the “polymerase ribozyme fitness (log ratio)” value is reported as ≤ -4.2. With G11U A39U G62A U77G A120C the “polymerase ribozyme fitness (log ratio)” value was ≤ -4.2. With G11U A40G U45G G71U G83C U127C U134A A137G the “polymerase ribozyme fitness (log ratio)” value was ≤ -4.2. In the case of G11U A47C G50U C57G A64U C76G, the “polymerase ribozyme fitness (log ratio)” value is reported as ≤ -4.2. For G11U A47C U56C G67U C75A U90A C93U, the “polymerase ribozyme fitness (log ratio)” value was ≤ -4.2. With G11U A52C G58A C116G C125G A137C the “polymerase ribozyme fitness (log ratio)” value was ≤ -4.2. In the case of G11U A60G C87A G140C G141C A142C, the “polymerase ribozyme fitness (log ratio)” value is reported as ≤ -4.2. With G11U A60U U77A the “polymerase ribozyme fitness (log ratio)” value was ≤ -4.2. In the case of G11U A73U G81A G83C G86U G126C G136C, the “polymerase ribozyme fitness (log ratio)” value is reported as ≤ -4.2. With G11U A73U G92U C114A the “polymerase ribozyme fitness (log ratio)” value was ≤ -4.2. In the case of G11U C14G G34U G84U G141U, the “polymerase ribozyme fitness (log ratio)” value is reported as ≤ -4.2. In the case of G11U C14U A41C A47G C51G C72A G74C C95U U101G A107C, the “polymerase ribozyme fitness (log ratio)” value is reported as ≤ -4.2. For G11U C36A G84A U104G U134A, the “polymerase ribozyme fitness (log ratio)” value was ≤ -4.2. In the case of G11U C36U C63U G83C G92A C99U, the “polymerase ribozyme fitness (log ratio)” value is reported as ≤ -4.2. For G11U C36U U44G A52U G70C A89G C95U C105U, the “polymerase ribozyme fitness (log ratio)” value was ≤ -4.2. With G11U C38U G58C C96U A98G the “polymerase ribozyme fitness (log ratio)” value was -1.45. In the case of G11U C51G G65A G68U G84A G124A A138G, the “polymerase ribozyme fitness (log ratio)” value is reported as ≤ -4.2. With G11U C51U G62C G70A G86A A91G the “polymerase ribozyme fitness (log ratio)” value was ≤ -4.2. For G11U C54G C87U, the “polymerase ribozyme fitness (log ratio)” value was ≤ -4.2. With G11U C54G C93G the “polymerase ribozyme fitness (log ratio)” value was ≤ -4.2.
